# Experimental data from the supplement of paper PMC11417369.
# ± gives the standard deviation of the averaged measurements. The list shows a part of the results.
# System: PfAP2-I AP2 domain 3 (GST-tagged)
# Test: gcPBM binding intensity (ln(normalized median fluorescence intensity)); higher = stronger DNA binding
# How it was run: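 Binding of GST-tagged P. falciparum DNA-binding domains, expressed in E. coli and used at about 25 μg on average, was carried out for 1 h in 1× PBS containing 1% milk, 0.2 mg/ml BSA, 0.5% salmon testes DNA and 0.03% Triton X-100. The target was an Agilent 4 × 180k array of primer-extended double-stranded 36-bp intergenic genomic probes plus negative controls, read with Alexa488 anti-GST antibody at 488 nm. Binding intensity is the highest Masliner-normalised natural-log median intensity across replicate spots of either probe orientation.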
row,Sequence,gcPBM binding intensity (ln)
1,ATTTTTTCTTATAATGCATGTAGAAAACCGTACAGC [TGCATGCA_site57],8.12 ± 0.6
2,AGGCTCAAATCTAGGTGTACCATTATCGTTGTATCT [XGTACX_site4730],7.64 ± 0.58
3,TATGTGTTTATTTGGTGTACATACTAATAAATATAC [XGTACX_site1682],8.26 ± 0.14
4,CCTAAATTATATTATGCACACTTAAAAATATATTTA [CACACA_site5861],10.2 ± 0.73
5,ATATAATAAAATGACACACGCATATATATATATATA [CACACA_site2789],9.44 ± 0.42
6,TTTCTTTTTAAATATATACACACCGTGGGTACATAT [CACACA_site9102],7.92 ± 0.49
7,TTATATTTATTTATTTGTACATATTTTTTTTTATAT [XGTACX_site1669],7.76 ± 0.16
8,ATACTAAAAAGTATCTGTACTTATTTTAAAAATAAA [XGTACX_site4116],7.82 ± 0.21
9,TAAAAAATGAAAAAGCGTACATGTTTTCTTATATTA [XGTACX_site1722],7.65 ± 0.41
10,TTTTCTAAAATGAATTGTACTTGATTATTTAAAAAA [XGTACX_site6097],7.53 ± 0.28
11,TGTATCATAAAAATAACACACGTATTTTTTTTTATT [CACACA_site1050],7.67 ± 0.61
12,TATTTACTTATATGCACACATAAATGTGAATTATGG [CACACA_site3777],9.39 ± 0.3
13,TAAATAATTAAAATATGTACTGAAATGTAATTATTT [XGTACX_site5894],7.81 ± 0.4
14,ATATAAATTTTTTAGAGTACTAAAATAAAATAATAT [XGTACX_site2118],7.79 ± 0.4
15,TTATTTATATATTCATGTACATAACATTTCATTCGA [XGTACX_site4388],7.89 ± 0.33
16,TTTTAAGAATAAAATTGTACACATACATGTGTTCGC [XGTACX_site438],7.58 ± 0.59
17,TTCTCATTCAAATTAGTGCATTTTTGTTATTACATT,9.81 ± 0.2
18,AAACAGAAGACATATACACACATACAAAAAAGTGCA [CACACA_site4699],7.79 ± 0.48
19,TGTGTATATATATAATGTACATAAAGATTTATATAT [XGTACX_site5835],7.82 ± 0.51
20,ATAGAAATATATATATGTACATATAGATAAATCTAT [XGTACX_site7833],7.54 ± 0.35
21,ATATGAAATAATAATAGTACATAAAATAATTTTACT [XGTACX_site6964],7.71 ± 0.36
22,ATAAATACAGATAACACACACATATATATATATATA [CACACA_site5431],9.19 ± 0.11
23,AAAAATAACGTAAATTGTACATGTAAAATTTTCTAT [XGTACX_site7158],7.62 ± 0.57

row,Sequence,gcPBM binding intensity (ln)
1,TGTTTTATACTAAATGAACACACACCCATATATATA [CACACA_site7912],8.39 ± 0.66
2,TTATTTATTTATAATAGTACAATTTAATGATCTTCT [XGTACX_site4831],7.54 ± 0.52
3,CAATATATTTGATTTACACACTTACAATGTATATAA [CACACA_site2994],7.91 ± 0.49
4,CCAACATGCCCACGCACACACAAAAAAAGCATGCAT [CACACA_site4217],8.06 ± 0.47
5,AATAATATATATATATATATAATAAAATATAAATAG [CACACA_negctrl_site1515],7.7 ± 0.49
6,AACCTAAGCATTCTTCAAATTATATATGTAAAATGA [CACACA_negctrl_site261],7.42 ± 0.79
7,TCGTATCTATTGAGGGTGCCTCTATAATTGATACAA [GTGCAC_site9636],8.35 ± 0.099
8,TAATATAATATATGCACACAAATATGTATTTATGTG [CACACA_site5210],9.14 ± 0.014
9,GAAAAAATAAAATAAAGTACATAACTATAATAAAAA [XGTACX_site4807],7.9 ± 0.34
10,ATATATAAACACTCTTGTACATAATAATGTATATAT [XGTACX_site2451],7.88 ± 0.38
11,CTTACACCCATATATACACACATGTATATTTTATAT [CACACA_site4462],8.09 ± 0.49
12,TACTCCTCAATATTATGTACATATAATAGTTATAAA [XGTACX_site8551],7.95 ± 0.27
13,TATATAACTGTCTTCAGTACACAATAAATAAAAATA [XGTACX_site8856],7.86 ± 0.41
14,TAATAAAAATAAAATTGTACTAATAACATTTCATTA [XGTACX_site3703],7.26 ± 0.33
15,TTTCAAAAAAATAGCTATATTTATATTAATGCACGA [TGCATGCA_negctrl_site63],11.9 ± 0.45
16,AAAGGTGTATATAATACACACGTGTGATTAAAATTG [CACACA_site8104],7.93 ± 0.55
17,AACTTTGAGACATAGTGTACTTACACAATCTTAATA [XGTACX_site3712],7.79 ± 0.43
18,ACATTTTTTTTTTTTTTTCTTTTTCTTTTTCTTTTT [CACACA_negctrl_site1295],7.72 ± 0.52
19,CATATTTGATACAAGTGTACTTTATTTAAAAATTCT [XGTACX_site8408],7.88 ± 0.17
20,TACATAAATATATGTGTGCACAATTTCGTATATTTA [GTGCAC_site9859],10.74 ± 0.064
21,TGTACATTCGGAGTAAAAAAAAATTTATACAATTAC [CACACA_negctrl_site1451],7.59 ± 0.66
22,AACAGATAAAAGGGTACACACATATATACCTGTACA [CACACA_site4285],8.06 ± 0.43
23,TGTATTAAATTTTGAACACACAAAATAAAACATATA [CACACA_site1672],7.71 ± 0.39

row,Sequence,gcPBM binding intensity (ln)
1,AGTATAAAATAAATGTGTACACAAGAAAATATGTTA [XGTACX_site8381],8.63 ± 0.29
2,AAAATCACAAGACACACACACACAAAAAAAAAAAAA [CACACA_site6791],7.95 ± 0.62
3,AAAATATTTTAATGTTGTACATTAATATATTATATA [XGTACX_site2513],7.52 ± 0.34
4,ATATATATATGTATGTGTCCACAAGGAGATATATAT [XGTACX_site783],9.045 ± 0.021
5,AGTAAATAATAGATCGCATGTAATAACTAGTAGGAA [TGCATGCA_site948],7.78 ± 0.81
6,ATTATAAAGACATATACACACATACGTACATACATA [CACACA_site5893],8.01 ± 0.57
7,ACAATTGAAGAAATACGTACATAAAGAAAAACTAGT [XGTACX_site820],8.39 ± 0.73
8,GTTGTTTCTATAAATTGTACTTAAATATAATTATAT [XGTACX_site585],8.19 ± 0.35
9,ATATATTGTATGTGCTCACACATGTTTCGATATTAT [CACACA_site4336],7.8 ± 0.71
10,GTAAATATGTTTATTAGTACACATATGAAAATAAAT [XGTACX_site5820],7.96 ± 0.38
11,GTTCAAAATATGAACACACACATATATATATATATA [CACACA_site2057],9.35 ± 0.38
12,ATCTACATATATTATTGTACATTGTTAAAAATTTAT [XGTACX_site7769],7.71 ± 0.54
13,TTTCGTAATATGCGTGTGCACAATGAGTCCATATCT,10.5 ± 0.35
14,TTTTTTTTTTTTTGGGGTACATTTTAATTAATATTA [XGTACX_site4866],8.17 ± 0.42
15,TAAAATATAATTAGCACACATATATAAAATATATAT [CACACA_site4093],8.12 ± 0.092
16,TATTTAATGCAAAAACGTACATAAATAACATTCACA [XGTACX_site5356],8.18 ± 0.014
17,TATATATATATTAGTGGTACAAGATTTTTTTCTTTT [XGTACX_site4619],9.17 ± 0.11
18,TATAAACACCCATATAAACACACATACATACATACA [CACACA_site8791],8.93 ± 0.49
19,TTTTTTCATAAATAATGTACATATATATATATATAT [XGTACX_site3620],9.4 ± 0.25
20,TCTTGTAGATATATTTGTACATATATTTATGGGTAT [XGTACX_site1139],7.88 ± 0.43
21,CTAGACTTTTTACAATGTACATATTTATGTATTATT [XGTACX_site1833],7.61 ± 0.46
22,AAAAAATATATATTAACACACACACTAATAAAAAAA [CACACA_site8366],8.05 ± 0.64
23,AAAATTTTTTACTTTACACACATTTTGTATATTTTG [CACACA_site1730],7.92 ± 0.63

row,Sequence,gcPBM binding intensity (ln)
1,ATATTATTTATAAGTTGTACGGTATAATATAATATA [XGTACX_site5371],7.76 ± 0.41
2,GGGAATATATTCAATTGTACATTCTTATTTTATCCA [XGTACX_site8480],7.82 ± 0.56
3,ACGCACGAAATAAATACATGCATATTGTAAAAATTA [TGCATGCA_site310],7.84 ± 0.4
4,TCTTTTTTTTTACATACTTTTTTCCTTTTTTTTTTA [CACACA_negctrl_site1429],7.73 ± 0.65
5,TTAAATACTAAAAAGTGTACACATACATAAAAAATT [XGTACX_site6261],8.35 ± 0.6
6,ATTATGTTAATAATATGTACATATATCTACATATAT [XGTACX_site7978],7.62 ± 0.38
7,ATTATTTTGTTTATTACATGCAGGTGTATATTACAG [TGCATGCA_site723],8.98 ± 0.34
8,GAGTATATTTATATTGCACACAATTTTTTTATTTTT [CACACA_site2644],10.3 ± 0.54
9,CATAAATGTCTCACATGTACATATGCATTTTTAAAA [XGTACX_site3194],7.97 ± 0.38
10,TATATATAATATTGCACACAAAATTAAAAGTAAATA [CACACA_site19],9.81 ± 0.67
11,TGCATAAATTTATGCACACATAAAAAAAAAAAAAAA [CACACA_site2923],10 ± 0.64
12,CAACTCTTATTTAATTATATGAATTAATTTATATGA [CACACA_negctrl_site200],7.28 ± 0.36
13,AAACATTTATCAATGAATCTTTTAATAAGTGTAAAG [XGTACX_negctrl_site80],7.56 ± 0.49
14,TCATTCAGTTTTATCACACACAATCAAACATATATA [CACACA_site2742],7.96 ± 0.37
15,ATTCAATATTTATACACACACACTTTTAATAATTAA [CACACA_site7725],8.05 ± 0.55
16,ATATATATAATAAATACACACATTTATATAGATAAA [CACACA_site3254],8.03 ± 0.58
17,TCAACATTCATTGGAAGTACTCACTCCCATATAATA [XGTACX_site5211],7.55 ± 0.33
18,AATATAAGGATATATACACACATAAATACATACATA [CACACA_site7859],7.67 ± 0.59
19,TATTTTTTTAGATATACATGCAAAAACAGAAGAAAT [TGCATGCA_site283],8.24 ± 0.58
20,TGAACTTTAAACCCTGAACACACACTAATACACCCA [CACACA_site7970],8.94 ± 0.3
